Screen size: about 280,000 compounds; about 1,100 (0.39%) were called active. Inconclusive means that the source gave no clear call. Such entries were picked first, then a sample of the others. The call rests on the fitted dose curve; in most records, active means well fitted inhibition curve with a large enough effect; inconclusive means small, poorly fitted or top-dose-only effect, or effect the other way; inactive means flat fitted curve, though single readings scatter. A potency beside an inconclusive call is a rough fit, not a confirmed value.
These compounds were tested against Microtubule-associated protein tau (Homo sapiens) (UniProt P10636) (assay: qHTS for Inhibitors of Tau Fibril Formation, Fluorescence Polarization). Conditions: K18 P301L tau heparin fibrillization, Alexa594 FP, 6 h; series mostly up to 57.7 µM.
Outline: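 K18 P301L tau (15 uM unlabeled/0.24 uM Alexa 594-labeled, final) + compound + heparin 20 uM final; 100 mM NaOAc pH 7; 6 hr 37 C; ThT 30 uM final added, 1 hr RT; FP ex 555/em 632 nm.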
Further: nearly all actives have a fitted effect of over 55% in size.
Potency means the concentration at half of the fitted maximal effect; tags describe the fitted curve by direction and shape.

UniProt P10636, sequence (P10636 whole entry, looked up): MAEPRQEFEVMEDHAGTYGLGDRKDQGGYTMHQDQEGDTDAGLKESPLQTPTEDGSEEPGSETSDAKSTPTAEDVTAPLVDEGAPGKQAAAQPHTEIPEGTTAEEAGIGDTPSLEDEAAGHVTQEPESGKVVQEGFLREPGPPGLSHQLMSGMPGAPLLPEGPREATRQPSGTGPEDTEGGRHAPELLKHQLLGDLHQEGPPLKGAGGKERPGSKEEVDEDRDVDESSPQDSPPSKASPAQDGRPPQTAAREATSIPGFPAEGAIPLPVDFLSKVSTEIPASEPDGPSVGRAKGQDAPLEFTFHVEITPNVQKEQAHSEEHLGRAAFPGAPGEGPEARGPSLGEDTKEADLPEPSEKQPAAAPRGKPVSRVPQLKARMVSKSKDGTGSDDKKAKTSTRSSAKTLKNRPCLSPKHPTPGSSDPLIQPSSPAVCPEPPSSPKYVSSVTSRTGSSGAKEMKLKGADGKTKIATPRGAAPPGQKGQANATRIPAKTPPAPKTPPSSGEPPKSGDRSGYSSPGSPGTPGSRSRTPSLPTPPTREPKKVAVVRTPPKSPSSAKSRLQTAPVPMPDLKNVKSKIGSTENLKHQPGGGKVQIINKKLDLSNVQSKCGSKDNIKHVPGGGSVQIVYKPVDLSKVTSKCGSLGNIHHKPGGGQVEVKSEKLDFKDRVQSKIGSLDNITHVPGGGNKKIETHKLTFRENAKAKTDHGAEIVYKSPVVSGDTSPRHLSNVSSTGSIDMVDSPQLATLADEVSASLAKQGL

Potency, active:
CC1=C(C)/C(=N\OS(=O)(=O)c2ccccc2)C=CC1=O 15.8 µM
CC(C)c1ccc(NS(=O)(=O)c2ccc3[nH]cc(C(=O)NC4CCCCC4)c(=O)c3c2)cc1 3.55 µM
Cc1cc(F)ccc1S(=O)(=O)Nc1ccccc1C(=O)Nc1ccccc1-c1nc2ccccc2[nH]1 12.6 µM

Potency, inactive:
CCSc1nnc(NC(=O)C(C)(C(F)(F)F)C(F)(F)F)s1
Cc1cccc2c1-c1sc(C(=O)NCc3ccccc3Cl)cc1CO2
CCCC(C)NC(=O)c1ccc(F)cc1 (stereo unspecified)
COc1ccc(C2C3=C(CCCC3=O)Nc3nc(C(F)(F)F)nn32)cc1OC (stereo unspecified)
Cc1cc(C(=O)Cn2nc(C(=O)O)c3ccccc3c2=O)c(C)n1CCc1ccc(Cl)cc1
CCOC(=O)c1c(NC(=O)CC2SC(N)=NC2=O)sc2c1CCC(C)C2 (stereo unspecified)
O=C1C2ON(c3ccccc3)C(c3ccccc3F)C2C(=O)N1c1ccccc1 (stereo unspecified)
C/C(=N/NC(=O)c1cc(C2CC2)[nH]n1)c1cccs1
CCCC1CC(C)(/C(C)=N\NC(N)=S)OC1=O (stereo unspecified)
COc1ccc(C(=O)/C=C/c2cn(CC(O)CN(CC(C)C)CC(C)C)c3ccccc23)cc1OC (stereo unspecified)
CC(C)c1ccc(NC(=O)CCS(=O)(=O)c2ccc(Br)s2)cc1
Cn1c(=O)c2sccc2n2c(CCCC(=O)Nc3ccc(F)c(F)c3)nnc12
Cc1ccc(C)c(NC(=O)C(C)N(c2ccccc2)S(C)(=O)=O)c1 (stereo unspecified)
CC(=O)Oc1ccc(/C=C2/CCc3ccccc3C2=O)cc1
CN1/C(=C\C=N\NC(=O)c2ccccc2Br)C(C)(C)c2ccccc21
O=C(O)C1CCCCC1C(=O)Nc1ccc(Cl)cc1Cl (stereo unspecified)
CC(C)c1ccc(NC(=O)CSC2=Nc3ccccc3C3=NC(CCC(=O)NCc4cccs4)C(=O)N23)cc1 (stereo unspecified)
O=c1oc2ccccc2c(NCc2ccccc2)c1[N+](=O)[O-]
O=C(c1ccc2c(c1)[nH]c(=S)n1c3ccccc3nc21)N1CCN(c2cccc(Cl)c2)CC1
CCCC(=O)Nc1ccc(-c2csc(NNC(C)=O)n2)cc1
Cn1c(=O)n(C)c2cc(CNCc3ccccc3Cl)ccc21
CCc1cccc(NC(=O)CN2C(=O)COc3ccc(S(=O)(=O)N4CCC(C)CC4)cc32)c1
CCOC(=O)c1ccc(NC(=O)CSc2nc3c(c(=O)n2-c2ccccc2OC)SCC3)cc1
COC(=O)C1=C(C)Nc2sc(C(N)=O)c(N)c2C1c1ccncc1 (stereo unspecified)

Potency, inconclusive:
COC(=O)c1ccc(C(=O)OC)c(NC(=O)CSCc2ccc(Cl)cc2)c1 35.5 µM [inhibitor, single point]
C/C(=N\NC(=O)Cn1nc(C)c([N+](=O)[O-])c1C)c1ccc(Cl)s1 0.355 µM [inhibitor, single point]
COC(=O)CSc1nc2ccc(NC(=O)CSc3nnnn3Cc3ccccc3)cc2s1 3.55 µM [inhibitor, full curve]
COc1cc(NC(=S)NC(=O)c2c(OC)cccc2OC)ccc1NC(=O)c1cccs1 35.5 µM [inhibitor, single point]
CCSc1nc(C2CC2)cc(-c2ccco2)c1C#N 35.5 µM [inhibitor, single point]
COc1ccc(C(=O)/C=C/c2ccc(O)cc2)c(O)c1CC=C(C)C 11.2 µM [inhibitor, partial curve]
CCOc1ccccc1NC(=O)NC(=O)N(C)S(C)(=O)=O 8.91 µM [inhibitor, full curve, poor fit]
O=C(Nc1ccc(Cl)cc1)c1ccc2c(c1)N(Cc1ccccc1)C(=O)c1ccccc1S2(=O)=O 28.2 µM [inhibitor, partial curve]
C=C(C)C(=O)OC1(C(F)(F)F)Oc2cc(C)ccc2NC1=O (stereo unspecified) 11.2 µM [inhibitor, partial curve]
COc1ccc(OC)c(N=c2ssnc2Cl)c1 15.8 µM [inhibitor, partial curve]
COCCNC(=S)NNc1ccc(Cl)c(C(=O)O)c1 22.4 µM [inhibitor, partial curve, poor fit]
Cc1ccc(OCCn2cc(C(=O)O)c3ccccc32)cc1 1.78 µM [inhibitor, full curve, poor fit]
COc1cccc(-c2nc(-c3ccc(NC(=O)c4cccs4)cc3)no2)c1 20 µM [inhibitor, partial curve]
Cn1c(=O)n(C)c2cc(/C=N/NC(=S)NCc3ccccc3)ccc21 44.7 µM [activator, single point]
COc1ccc(CNC(=O)Cc2c(C)c3ccc(O)cc3oc2=O)cc1 0.0501 µM [inhibitor, full curve, poor fit]
CN(C)c1ccc(C(=S)N2CCCCCC2)cc1 28.2 µM [inhibitor, single point]
O=C(NCCSCc1ccco1)Nc1cc(Cl)cc(Cl)c1 25.1 µM [inhibitor, partial curve]
CCN(CC)S(=O)(=O)c1cc(C(=O)OCC(=O)Nc2ccc(-c3nc4ccc(C)cc4s3)cc2)ccc1F 15.8 µM [inhibitor, partial curve]
COc1cccc(-c2cc(C(F)(F)F)nc(NCc3ccc(F)cc3)n2)c1 25.1 µM [inhibitor, partial curve]
CCCCNS(=O)(=O)c1ccc2nc(SCC(=O)Nc3cc(C)cc(C)c3)[nH]c2c1 10 µM [inhibitor, partial curve]
FC(F)Sc1ccc(NC(=S)NCC2CCCCC2)cc1 12.6 µM [inhibitor, partial curve]
CCN(CC)C(=S)SCC(=O)c1c(C)[nH]c2ccccc12 28.2 µM [inhibitor, partial curve]
Cc1ccc(NC(=O)CSc2nnc(-c3ccccc3C)o2)cc1C 12.6 µM [inhibitor, partial curve, poor fit]
O=C(NCc1ccc2c(c1)OCO2)C1CC(c2ccc(Cl)c(Cl)c2)=NO1 (stereo unspecified) 22.4 µM [inhibitor, single point]
COc1ccc(-c2cc(-c3ccccc3)nc3c2COc2ccc(Cl)cc2-3)cc1 7.08 µM [inhibitor, full curve]
CCOC(=O)c1sc(NC(=O)CSc2nncn2C)nc1C 4.47 µM [inhibitor, single point]
O=C(Nc1cccc(Cl)c1)Nc1sccc1-c1nc2ccccc2s1 11.2 µM [inhibitor, partial curve, poor fit]
O=C1C2=C(Nc3ccccc3SC2c2c(F)cccc2Cl)c2ccccc21 (stereo unspecified) 15.8 µM [inhibitor, partial curve]
Cc1nnsc1-c1onc(C)c1C(=O)Nc1cc(Cl)cc(Cl)c1 35.5 µM [inhibitor, single point]
Cn1cccc1C(=S)N1CCOCC1 4.47 µM [inhibitor, single point]
COc1ccc(NC(=O)CSC2=Nc3ccccc3C3=NC(CCC(=O)NCCc4ccccc4)C(=O)N23)cc1 (stereo unspecified) 39.8 µM [activator, single point]
COC(=O)c1ccc(NS(=O)(=O)c2ccc3[nH]c4c(c3c2)CCCCC4)cc1 39.8 µM [inhibitor, single point]
CCC(C)(C)NC(=O)C(OC(=O)c1cc2sccc2n1C)c1ccc(OC)cc1 (stereo unspecified) 35.5 µM [inhibitor, single point]
CCCCNc1ccc2nsnc2c1[N+](=O)[O-] 4.47 µM [inhibitor, partial curve]
COc1ccc(-c2[nH]c(-c3ccc(C)cc3)nc2SCC(=O)NCC2CCCO2)cc1 (stereo unspecified) 22.4 µM [activator, partial curve, poor fit]
COC(=O)c1cc(OC)c(OC)cc1NCC(=O)Nc1cccc(C(F)(F)F)c1 11.2 µM [activator, partial curve, poor fit]
COc1ccc(-c2csc(NC(=S)NC(=O)c3ccco3)n2)cc1 31.6 µM [inhibitor, single point]
CCSc1ncc(Cl)c(C(=O)Nc2cc(C)ccc2C)n1 35.5 µM [inhibitor, single point]
O=C(CSc1ccc2ccccc2c1Br)Nc1cccc(S(=O)(=O)NC2=NCCCCC2)c1 35.5 µM [inhibitor, partial curve]
COc1ccc(OC)c(-n2nnnc2SCC(=O)Nc2nc(C)c(C)s2)c1 15.8 µM [inhibitor, partial curve, poor fit]
O=C(c1ccc(Cl)cc1)n1nc(-c2ccccc2)nc1NCc1ccco1 39.8 µM [inhibitor, single point]
O=C(Nc1cn(-c2ccccc2)nc1-c1ccc(F)cc1)c1ccccc1 39.8 µM [inhibitor, single point]
CN(C)c1ccc(N/C=C/C(=O)C(C)(C)C)cc1 31.6 µM [inhibitor, partial curve]
CC(=O)OCC1OC(Nc2cccc(C)c2)C(OC(C)=O)C(OC(C)=O)C1OC(C)=O (stereo unspecified) 22.4 µM [inhibitor, single point]

— PubChem BioAssay AID1468 (National Center for Advancing Translational Sciences (NCATS), 2008)
